From ChEMBL document CHEMBL4888484, “Replenishing the malaria drug discovery pipeline: Screening and hit evaluation of the MMV Hit Generation Library 1 (HGL1) against asexual blood stage Plasmodium falciparum ,using a nano luciferase reporter read-out” (2022)
Out of some 150,000 compounds screened, about 540 (0.36%) showed an effect of 50% or more. Some of the results follow.

These compounds were tested on Plasmodium falciparum (assay: Primary screen in NF54 nanoGlo assay, in single point, at 2uM, 72h; a lower Z score goes with more inhibition). Details: timepoint 72 hour.
Format: functional, Erythrocyte

First: COCCNC(=O)[C@H](C)NC(=O)[C@H]1CC[C@H](CNS(=O)(=O)c2ccc(F)cc2)CC1
Second: CC(C)C(=O)N1CCc2ccc(OCc3ccc(C(=O)NCC4CC4)o3)cc2[C@@H]1c1cccc(F)c1
The “% Inhibition” value of the first is lower: -10% for the first, 11% for the second.

Going from `Cn1cccc1CN1CCC(CC2CC2)(c2noc(C3CCOCC3)n2)CC1` to `Cc1cc(C(=O)N2CCC[C@@H]2Cc2noc(C3CCCC3)n2)n(C)n1`, the “% Inhibition” value rises from -14% to -12%.

Compared with `O=C(NCc1cccnc1)NCc1nccnc1-c1ccco1`, `Cn1cc(CCNC(=O)[C@@H]2COCC(=O)N2Cc2ccccc2)cn1` is lower in “% Inhibition” value: 13% for the first, -2% for the second.

Going from `Cc1ncc(C(=O)N2CCN(C(=O)c3cnc(C)s3)[C@@H](C)C2)s1` to `Cc1ccc(C2C(C(=O)N3CCC(C)CC3)CCC(=O)N2C)cc1` (stereo not drawn), the “% Inhibition” value rises from -11% to 36%.

Compared with `C[C@@H](C1CCN(C(=O)c2cc(F)cc(Cl)c2)CC1)N1CCCC1`, `FC1=CCCN(Cc2cc3ccccc3nc2N2CCCCC2)C1` is higher in “% Inhibition” value: -17% for the first, -11% for the second.

First: O=C(NCc1ccccn1)c1cn(-c2ccc(S(=O)(=O)N3CCCC3)cn2)cn1
Second: Cc1cnc(C(=O)NC[C@@H](c2ccco2)N2CCCC2)cn1
The “% Inhibition” value of the first is lower: -15% for the first, -7% for the second.

First: CC(C)(C)c1ccc(NC(=O)c2cccc[n+]2[O-])cc1
Second: Cc1[nH]ccc1C(=O)Nc1ccc(N(C)C)c(Cl)c1
The “% Inhibition” value of the first is lower: -24% for the first, -15% for the second.

Going from `COc1cc2c(cc1OC)CN(C(=O)CCCN1C(=O)c3ccc(C)cc3C1=O)CC2` to `Cc1ccoc1C(=O)N1CCC([C@]2(Cc3cccc(F)c3)NC(=O)N(CCN(C)C)C2=O)CC1`, the “% Inhibition” value rises from -4% to 7%.

Compared with `CCCc1cnc(NCCc2n[nH]c(=O)n2C)nc1`, `C[C@H]1CN(c2ncnc3[nH]ccc23)CC(=O)N1` is lower in “% Inhibition” value: 5% for the first, -2% for the second.

Compared with `CC(C)(NC(=O)C(F)(F)F)C(=O)NCc1cncc(F)c1`, `CNC(=O)CCC(C)(C)NC(=O)Nc1ccc(C)c(C(C)C)c1` is lower in “% Inhibition” value: -5% for the first, -21% for the second.

Going from `CCn1c(=O)c(N2CCC(C(=O)N3CCN(c4cccc(OC)c4)CC3)CC2)nc2ccccc21` to `COc1ccc(N2CCN(C(=O)c3cc(NC(C)=O)c4c(c3)ncn4CCc3ccccn3)CC2)cc1`, the “% Inhibition” value rises from -2% to 1%.

Compared with `O=C(Cn1nc(-c2ccc(F)cc2)c2cnc3ccccc3c21)Nc1ccccc1F`, `Cc1cc(C(=O)O)nc(N2CCN(C(c3ccccc3)c3ccccc3)CC2)n1` is higher in “% Inhibition” value: -26% for the first, -22% for the second.

First: COc1cccc(-c2nnc(N3CCN4CCCC[C@H]4C3)n2Cc2ccccc2)c1OC
Second: CCn1cnnc1CN1CCC(CNC(=O)[C@@H]2CCc3ccccc32)CC1
The “% Inhibition” value of the first is higher: 11% for the first, 7% for the second.

First: Cc1csc(C(C)NC(C)c2nc(C(C)C)no2)n1 (stereo not drawn)
Second: Cc1nn(C)c2nc(NCC3(C)COC3)sc12
The “% Inhibition” value of the first is lower: -16% for the first, 0% for the second.

Going from `Cn1cc(CNC(=O)Nc2nnc(CCN3CCOCC3)s2)cn1` to `Cc1nc(-n2nc(C)c(CC(=O)N3CCOCC3)c2O)sc1C`, the “% Inhibition” value rises from -22% to 2%.

Compared with `Cc1n[nH]c(C)c1CC(=O)Nc1cnn([C@@H](C)C2CC2)c1`, `COCCn1ccc(NC(=O)C(C)N2C(C)CCC2C)n1` (stereo not drawn) is higher in “% Inhibition” value: -7% for the first, 2% for the second.

First: c1ccc(-c2noc(CN3CCC[C@@H]3Cn3cncn3)n2)nc1
Second: O=C(CCn1cccn1)N1CCC[C@@]2(CCC(=O)N(Cc3ccncc3)C2)C1
The “% Inhibition” value of the first is higher: 6% for the first, -12% for the second.

First: COc1cccc(C(=O)N2CCN(C(=O)Nc3ccc(S(=O)(=O)N(C)C)s3)CC2)c1
Second: COc1cccc(CC(=O)N2CC(c3nc(C)no3)C2)c1
The “% Inhibition” value of the first is lower: -17% for the first, -13% for the second.

First: CC1CC(C)CN(CC(C)NC(=O)Cc2cc(-c3ccccc3)on2)C1 (stereo not drawn)
Second: C[C@H]1CCCN(S(=O)(=O)NCc2cccs2)C1
The “% Inhibition” value of the first is higher: 1% for the first, -8% for the second.

`CN(C)C(=O)c1ccc(-n2ccnc2-c2ccc(C(=O)O)s2)s1` and `Cc1nccn1C[C@@H](C)CNC(=O)c1nccc2c(S(N)(=O)=O)cccc12` are the same in “% Inhibition” value: -11% for the first, -11% for the second.

Compared with `CN(C[C@H]1CCCOC1)C(=O)Nc1ccc(F)cn1`, `O=C(CCN1CCOC(C2CCCO2)C1)c1ccc(F)cc1` (stereo not drawn) is lower in “% Inhibition” value: -1% for the first, -6% for the second.

Going from `COC(C)CS(=O)(=O)NC(c1nccs1)C1CC1` (stereo not drawn) to `Cn1cc(S(=O)(=O)N2C[C@]3(C)CC[C@@H](C3)C2(C)C)cn1`, the “% Inhibition” value falls from 1% to -8%.

First: CCCN1C(=O)[C@@H]2CC[C@H]1CN(C(=O)c1cnn(CCC)c1C)C2
Second: CC(C)[C@H](CNC(=O)N1CCOC2(CCC2)C1)c1ccnn1C
The “% Inhibition” value of the first is higher: 14% for the first, -1% for the second.

First: Cc1cnc(N(C)Cc2ncccn2)nc1
Second: Cc1cnc(C)c(NCc2ncccc2F)n1
The “% Inhibition” value of the first is lower: -5% for the first, 3% for the second.

Compared with `N[C@@H]1c2ccccc2C[C@H]1NS(=O)(=O)C1CC1`, `O=C(OCCN1CCOC1=O)c1ccc2c(c1)CCC2` is higher in “% Inhibition” value: -3% for the first, 34% for the second.

First: CCOc1cc(CCCNC(=O)C(C)(C)C#N)ccc1OC
Second: O=C(NCC1(O)CCCCC1)c1cccc(-c2ccc3nc[nH]c3c2)c1
The “% Inhibition” value of the first is higher: -5% for the first, -7% for the second.

First: COc1c2c(c(Br)c3c1[C@H](CC(=O)NC1CCCC1)N(C)CC3)OCO2
Second: CCc1noc(CN(CCC(C)C)C2CC2)n1
The “% Inhibition” value of the first is lower: -11% for the first, 1% for the second.

First: COCCNC(=O)[C@H](C)NC(=O)[C@H]1CC[C@H](CNS(=O)(=O)c2ccc(F)cc2)CC1
Second: CC(C)C(=O)N1CCc2ccc(OCc3ccc(C(=O)NCC4CC4)o3)cc2[C@@H]1c1cccc(F)c1
The Z score of the first is higher: 1.09 for the first, -1.63 for the second.

Going from `Cn1cccc1CN1CCC(CC2CC2)(c2noc(C3CCOCC3)n2)CC1` to `Cc1cc(C(=O)N2CCC[C@@H]2Cc2noc(C3CCCC3)n2)n(C)n1`, the Z score falls from 1.78 to 1.56.

Compared with `O=C(NCc1cccnc1)NCc1nccnc1-c1ccco1`, `Cn1cc(CCNC(=O)[C@@H]2COCC(=O)N2Cc2ccccc2)cn1` is higher in Z score: -1.69 for the first, 0.21 for the second.

Compared with `Cc1ncc(C(=O)N2CCN(C(=O)c3cnc(C)s3)[C@@H](C)C2)s1`, `Cc1ccc(C2C(C(=O)N3CCC(C)CC3)CCC(=O)N2C)cc1` (stereo not drawn) is lower in Z score: 1.6 for the first, -4.85 for the second.

Compared with `C[C@@H](C1CCN(C(=O)c2cc(F)cc(Cl)c2)CC1)N1CCCC1`, `FC1=CCCN(Cc2cc3ccccc3nc2N2CCCCC2)C1` is lower in Z score: 1.72 for the first, 1.13 for the second.

First: O=C(NCc1ccccn1)c1cn(-c2ccc(S(=O)(=O)N3CCCC3)cn2)cn1
Second: Cc1cnc(C(=O)NC[C@@H](c2ccco2)N2CCCC2)cn1
The Z score of the first is higher: 2.3 for the first, 1.41 for the second.

Compared with `CC(C)(C)c1ccc(NC(=O)c2cccc[n+]2[O-])cc1`, `Cc1[nH]ccc1C(=O)Nc1ccc(N(C)C)c(Cl)c1` is lower in Z score: 2.72 for the first, 1.42 for the second.

Compared with `COc1cc2c(cc1OC)CN(C(=O)CCCN1C(=O)c3ccc(C)cc3C1=O)CC2`, `Cc1ccoc1C(=O)N1CCC([C@]2(Cc3cccc(F)c3)NC(=O)N(CCN(C)C)C2=O)CC1` is lower in Z score: 0.72 for the first, -1.26 for the second.

First: CCCc1cnc(NCCc2n[nH]c(=O)n2C)nc1
Second: C[C@H]1CN(c2ncnc3[nH]ccc23)CC(=O)N1
The Z score of the first is lower: -0.79 for the first, 0.29 for the second.

First: CC(C)(NC(=O)C(F)(F)F)C(=O)NCc1cncc(F)c1
Second: CNC(=O)CCC(C)(C)NC(=O)Nc1ccc(C)c(C(C)C)c1
The Z score of the first is lower: 0.79 for the first, 2.7 for the second.

Compared with `CCn1c(=O)c(N2CCC(C(=O)N3CCN(c4cccc(OC)c4)CC3)CC2)nc2ccccc21`, `COc1ccc(N2CCN(C(=O)c3cc(NC(C)=O)c4c(c3)ncn4CCc3ccccn3)CC2)cc1` is lower in Z score: 0.42 for the first, -0.11 for the second.

Going from `O=C(Cn1nc(-c2ccc(F)cc2)c2cnc3ccccc3c21)Nc1ccccc1F` to `Cc1cc(C(=O)O)nc(N2CCN(C(c3ccccc3)c3ccccc3)CC2)n1`, the Z score rises from 2.33 to 2.57.

Compared with `COc1cccc(-c2nnc(N3CCN4CCCC[C@H]4C3)n2Cc2ccccc2)c1OC`, `CCn1cnnc1CN1CCC(CNC(=O)[C@@H]2CCc3ccccc32)CC1` is higher in Z score: -1.51 for the first, -1.06 for the second.

First: Cc1csc(C(C)NC(C)c2nc(C(C)C)no2)n1 (stereo not drawn)
Second: Cc1nn(C)c2nc(NCC3(C)COC3)sc12
The Z score of the first is higher: 2.54 for the first, 0.06 for the second.

First: Cn1cc(CNC(=O)Nc2nnc(CCN3CCOCC3)s2)cn1
Second: Cc1nc(-n2nc(C)c(CC(=O)N3CCOCC3)c2O)sc1C
The Z score of the first is higher: 3.26 for the first, -0.22 for the second.

Going from `Cc1n[nH]c(C)c1CC(=O)Nc1cnn([C@@H](C)C2CC2)c1` to `COCCn1ccc(NC(=O)C(C)N2C(C)CCC2C)n1` (stereo not drawn), the Z score falls from 1.23 to -0.19.

Going from `c1ccc(-c2noc(CN3CCC[C@@H]3Cn3cncn3)n2)nc1` to `O=C(CCn1cccn1)N1CCC[C@@]2(CCC(=O)N(Cc3ccncc3)C2)C1`, the Z score rises from -0.89 to 2.31.

Going from `COc1cccc(C(=O)N2CCN(C(=O)Nc3ccc(S(=O)(=O)N(C)C)s3)CC2)c1` to `COc1cccc(CC(=O)N2CC(c3nc(C)no3)C2)c1`, the Z score falls from 2.72 to 2.5.

First: CC1CC(C)CN(CC(C)NC(=O)Cc2cc(-c3ccccc3)on2)C1 (stereo not drawn)
Second: C[C@H]1CCCN(S(=O)(=O)NCc2cccs2)C1
The Z score of the first is lower: -0.12 for the first, 1.24 for the second.

Compared with `CN(C)C(=O)c1ccc(-n2ccnc2-c2ccc(C(=O)O)s2)s1`, `Cc1nccn1C[C@@H](C)CNC(=O)c1nccc2c(S(N)(=O)=O)cccc12` is lower in Z score: 1.82 for the first, 1.5 for the second.

Compared with `CN(C[C@H]1CCCOC1)C(=O)Nc1ccc(F)cn1`, `O=C(CCN1CCOC(C2CCCO2)C1)c1ccc(F)cc1` (stereo not drawn) is higher in Z score: 0.11 for the first, 0.54 for the second.

First: COC(C)CS(=O)(=O)NC(c1nccs1)C1CC1 (stereo not drawn)
Second: Cn1cc(S(=O)(=O)N2C[C@]3(C)CC[C@@H](C3)C2(C)C)cn1
The Z score of the first is lower: -0.21 for the first, 1.09 for the second.

Compared with `CCCN1C(=O)[C@@H]2CC[C@H]1CN(C(=O)c1cnn(CCC)c1C)C2`, `CC(C)[C@H](CNC(=O)N1CCOC2(CCC2)C1)c1ccnn1C` is higher in Z score: -1.62 for the first, 0.06 for the second.

Going from `Cc1cnc(N(C)Cc2ncccn2)nc1` to `Cc1cnc(C)c(NCc2ncccc2F)n1`, the Z score falls from 0.82 to -0.32.

Going from `N[C@@H]1c2ccccc2C[C@H]1NS(=O)(=O)C1CC1` to `O=C(OCCN1CCOC1=O)c1ccc2c(c1)CCC2`, the Z score falls from 0.65 to -3.44.

Going from `CCOc1cc(CCCNC(=O)C(C)(C)C#N)ccc1OC` to `O=C(NCC1(O)CCCCC1)c1cccc(-c2ccc3nc[nH]c3c2)c1`, the Z score rises from 0.45 to 0.85.

Compared with `COc1c2c(c(Br)c3c1[C@H](CC(=O)NC1CCCC1)N(C)CC3)OCO2`, `CCc1noc(CN(CCC(C)C)C2CC2)n1` is lower in Z score: 2.01 for the first, -0.17 for the second.
